# Measured values: PubChem BioAssay AID504466 (National Center for Advancing Translational Sciences (NCATS), 2011)
# Among all 330,000 compounds or so, about 4,200 (1.3%) were called active. Inconclusive means that the source gave no clear call. Such entries were picked first, then a sample of the others. Calls come from the whole dose curve; as a rule, active = well fitted activation curve with a large enough effect; inconclusive = small, poorly fitted or top-dose-only effect; inactive = no such curve, though single readings can be large or run the other way. Potencies beside an inconclusive call are fits to weak or partial responses and may not hold up.
# Assay: qHTS screen for small molecules that induce genotoxicity in human embryonic kidney (HEK293T) cells expressing luciferase-tagged ELG1; note: nearly all actives have a fitted effect of over 60% in size; for activity change, positive = activation: % of control where 0% means no effect
# Settings: HEK293T ELG1-luciferase reporter, luminescence, 16 h; series mostly up to 46 µM; activity change, positive = activation: at the top concentration
# Outline: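 Luminescence read-out: rising ELG1-luciferase signal, reflecting elevated ELG1 protein under genetic stress, flags genotoxic compounds. Cells were treated for 16 hr at 37 °C before ONE-Glo detection.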
# Potency is the fitted concentration of half-maximal effect; tags give direction and shape of the fitted curve.
SMILES,Potency,"activity change, positive = activation"
O=C(NCc1ccccc1Cl)C1CCC(CNc2nc(=S)[nH]c3ccccc23)CC1 (centres undefined),"inconclusive: 35.5 µM [activator, single point]",–
COc1ccc(-c2cc(C(=O)N3CCCCCC3)no2)cc1,active: 4.61 µM,–
COc1ccc(OC)c(/C=C/C(=O)OCC(=O)Nc2ccc(Cl)c(S(=O)(=O)N(C)C)c2)c1,–,inactive: -0.53%
CCN(c1ccccc1)S(=O)(=O)c1ccc(OC)c(NC(=O)Cc2ccccc2OC)c1,–,inactive: -0.661%
Cc1ccccc1Nc1nc(N)nc(COC(=O)c2cccn2C)n1,active: 16.4 µM,–
Cc1ccc(CNC(=O)CCCOc2cc(=O)n(C)c3ccccc23)o1,"inconclusive: 18.4 µM [activator, partial curve, poor fit]",–
O=C(c1ccc(Cl)c([N+](=O)[O-])c1)N(Cc1ccc(Cl)cc1)C1CCS(=O)(=O)C1 (centres undefined),"inconclusive: 32.6 µM [activator, partial curve, poor fit]",–
Cc1cc(/C=N/NC(=O)c2ccsc2)c(C)n1-c1cnccn1,"inconclusive: 20.6 µM [activator, single point]",–
CC(=O)c1c(C)[nH]c(C(=O)OCc2ccc(Br)cc2)c1C,"inconclusive: 18.3 µM [activator, partial curve, poor fit]",–
COc1cc(C)ccc1N(CCCN1C(=O)c2cccc3cccc(c23)C1=O)C(=O)c1cccs1,–,inactive: -3.65%
CC(=O)c1c(C)[nH]c(C(=O)Nc2nc(C)cs2)c1C,active: 0.517 µM,–
O=C(N/N=C\c1cccnc1)c1ccccc1O,"inconclusive: 5.62 µM [activator, single point]",–
COc1ccc(C2NC(=S)NC(C)=C2C(=O)Nc2ccccn2)cc1OC (centres undefined),–,inactive: 0.374%
N/C(=N\OC(=O)c1cccc(F)c1)c1cccc([N+](=O)[O-])c1,"inconclusive: 18.3 µM [activator, partial curve, poor fit]",–
COc1ccc(NC(=O)c2ccc(-n3cnnn3)cc2)c([N+](=O)[O-])c1,"inconclusive: 5.8 µM [activator, partial curve, poor fit]",–
Oc1[nH]c2ccccc2c1N=Nc1cccc(Cl)c1,"inconclusive: 10.3 µM [activator, partial curve]",–
CC(NC(=O)C(=O)N1CCCCC1)C(c1cccs1)N1CCN(c2ccccc2)CC1 (centres undefined),–,inactive: -1.59%
O=C(c1cccc(S(=O)(=O)N2CCc3ccccc32)c1)N1CCCC(C(F)(F)F)C1 (centres undefined),"inconclusive: 16.4 µM [activator, partial curve, poor fit]",–
COc1ccc(C(=O)NCCc2ccccn2)cc1S(=O)(=O)Nc1ccc(Br)cc1,–,inactive: -0.358%
COc1ccccc1NS(=O)(=O)c1cc(NC(=S)NCCN2CCOCC2)ccc1N1CCOCC1,"inconclusive: 23.1 µM [activator, partial curve, poor fit]",–
O=S1(=O)N=C(Nc2ccc(N3CCOCC3)c(Cl)c2)c2ccccc21,"inconclusive: 6.51 µM [activator, partial curve, poor fit]",–
Cc1cc(C)c(C#N)c(SCC(=O)c2cccs2)n1,"inconclusive: 20.6 µM [activator, partial curve]",–
Cc1ccc(S(=O)(=O)N(CCC(=O)Nc2ccc(OC(F)(F)F)cc2)c2ccccc2)cc1,–,inactive: -4.7%

SMILES,Potency,"activity change, positive = activation"
CCNc1oc(COc2ccccc2F)nc1C#N,"inconclusive: 11.2 µM [activator, partial curve]",–
Nc1c(C(=O)NCc2ccco2)nnn1-c1ccccc1,"inconclusive: 11.6 µM [activator, partial curve, poor fit]",–
c1ccc(-c2noc(-c3ccc4ccccc4c3)n2)cc1,"inconclusive: 0.184 µM [activator, full curve]",–
O=C(COc1ccc(Cl)cc1)Nc1ccc(Cl)cn1,"inconclusive: 6.51 µM [activator, single point]",–
N/C(=N\OC(=O)c1cc(Cl)ccc1Cl)c1cccnc1,active: 20.6 µM,–
CCCCN(C)/C=N/c1c(C#N)cnn1-c1ccc(C)cc1,–,inactive: 0.836%
Cc1cc(C(=O)C(C)OC(=O)c2cnccn2)c(C)n1-c1ccccc1 (centres undefined),"inconclusive: 25.9 µM [activator, single point]",–
O=C1CCc2ccc(NS(=O)(=O)c3ccc(F)cc3)cc2N1,active: 18.3 µM,–
CCN1C(=O)[C@@H]2[C@@H](c3ccc(-c4ccc(Cl)c(Cl)c4)c(OC)c3)N3CCCC[C@@]3(C(=O)OC)[C@@H]2C1=O,–,inactive: 1.14%
Cc1ccc(NC(=O)C(C)OC(=O)c2n[nH]c3ccccc23)cc1 (centres undefined),"inconclusive: 25.9 µM [activator, single point]",–
O=c1cc(-c2ccccc2)oc2cc(O)c(O)c(O)c12,"inconclusive: 3.26 µM [activator, full curve, poor fit]",–
CCCCCCCC(=O)Nc1cc(C(=O)NCc2ccc(C)cc2)ccc1N1CCC2(CC1)CC(c1ccccc1)=NO2,"inconclusive: 23.1 µM [activator, partial curve, poor fit]",–
O=[N+]([O-])c1nn(-c2ccc3c(c2)OCCO3)n(O)c1=NC1CCCCCC1,"inconclusive: 10 µM [activator, partial curve]",–
CCC(=O)NC(c1ccc(Cl)cc1Cl)c1ccc2cccnc2c1O (centres undefined),"inconclusive: 6.51 µM [activator, full curve]",–
O=[N+]([O-])c1ccc2ccn(C3OCC(O)C(O)C3O)c2c1 (centres undefined),–,inactive: -0.712%
Clc1ccc(OCCn2cnc3ccccc32)c(Cl)c1,"inconclusive: 16.4 µM [activator, partial curve, poor fit]",–
CNc1oc(-c2ccc(Cl)cc2)nc1C#N,"inconclusive: 11.6 µM [activator, partial curve]",–
N=C1SCC(=O)N1c1ncc(Cc2ccc(F)cc2)s1,"inconclusive: 29.1 µM [activator, single point]",–
Cc1cccc(NC(=O)/C=C/c2ccc([N+](=O)[O-])s2)c1,"inconclusive: 3.66 µM [activator, single point]",–
CCCn1c(N)c(C(=O)COC(=O)/C=C/c2ccc(OC(F)F)c(OC)c2)c(=O)[nH]c1=O,–,inactive: 2.85%
O=C(/C=C/c1ccccc1)c1ccc2c3c(cccc13)CC2,"inconclusive: 25.9 µM [activator, single point]",–
COc1cccc(/C=N/NC(=O)c2cccc(N3CCCC3=O)c2)c1,active: 4.11 µM,–
Cn1cc(S(=O)(=O)Nc2ccc3c(c2)OCCO3)cn1,"inconclusive: 23.1 µM [activator, single point]",–

SMILES,Potency,"activity change, positive = activation"
C=CCNc1ncnc2c1cnn2-c1ccc(C)cc1C,"inconclusive: 14.6 µM [activator, partial curve, poor fit]",–
CCN(CC)c1ccc(N=Nc2ncn[nH]2)cc1,"inconclusive: 16.4 µM [activator, partial curve]",–
O=C(NC1CCCCC1)c1cc2nc3c(c(C(F)(F)F)n2n1)CCCC3,"inconclusive: 11.6 µM [activator, partial curve]",–
O=c1/c(=C/c2ccc([N+](=O)[O-])cc2)sc2n1CCCN=2,"inconclusive: 7.31 µM [activator, partial curve, poor fit]",–
Cc1nc(Nc2cccc(C(F)(F)F)c2)nc2c1C(=O)CC(C)C2 (centres undefined),"inconclusive: 23.1 µM [activator, partial curve, poor fit]",–
O/N=C(/CCc1ccccc1)c1ccc2c(c1)OCCO2,active: 20.6 µM,–
CCn1cc(S(=O)(=O)Nc2ccc(Cl)cc2F)cn1,–,inactive: -2.57%
CC(=O)Nc1ccc(-c2csc(NC=C3C(=O)OC(C)(C)OC3=O)n2)cc1,"inconclusive: 23.1 µM [activator, partial curve, poor fit]",–
Cc1c(C(=O)N2CCCCC2)oc2ccc(Br)cc12,"inconclusive: 16.4 µM [activator, partial curve, poor fit]",–
COc1ccc(C(=O)CC(=O)c2ccccc2O)cc1,"inconclusive: 6.51 µM [activator, full curve, poor fit]",–
O=C(Nc1ccc2c(c1)OCCO2)c1coc2ccccc2c1=O,"inconclusive: 29.1 µM [activator, partial curve, poor fit]",–
Cc1cc(C)cc(NC(=O)NCC2CCN(Cc3cc(C)ccc3C)CC2)c1,–,inactive: -0.839%
Cc1cc2nc3c(nc2cc1C)CCCC3,"inconclusive: 18.3 µM [activator, partial curve, poor fit]",–
O=C(Nc1ccc(Br)cn1)c1ccc(Br)s1,"inconclusive: 2.59 µM [activator, partial curve]",–
O=C(c1cc2ccccc2o1)c1nc2c(n1O)CCCCC2,"inconclusive: 20.6 µM [activator, partial curve, poor fit]",–
CCOC(=O)c1sc2nc(N3CCOCC3)c3c(c2c1N)CCN(C)C3,–,inactive: 9.57%
COc1ccc(N(CC(=O)Nc2cccc(OC)c2)S(=O)(=O)c2c(C)nn(C)c2C)cc1,–,inactive: -1.64%
Cn1c(SCC(=O)Nc2ccccc2Oc2ccccc2)nnc1C1CC1,–,inactive: 0.655%
COC(=O)c1cc(-c2ccccc2)n(CC(=O)O)c1C,–,inactive: -4.44%
COc1ccc(C(=O)OCc2csc(C)n2)c(O)c1,"inconclusive: 20.6 µM [activator, single point]",–
CN(C)c1ccc(C=Nc2cnn(C)c2C(N)=O)cc1,"inconclusive: 20.6 µM [activator, partial curve, poor fit]",–
Cc1c(C(=O)N2CCC(C(N)=O)CC2)oc2ccc(Br)cc12,"inconclusive: 10.3 µM [activator, partial curve, poor fit]",–
COC(=O)c1cccc(NC(=O)c2onc3c2CCCC3)c1,active: 0.82 µM,–
